{"source": "PubChem BioAssay AID1030", "about": "(National Center for Advancing Translational Sciences (NCATS), 2008)", "note": "Hit rate of the full screen: of about 220,000 compounds, about 16,000 (7.3%) were called active. The inconclusive results got no clear call from the source; some entries with a clear call stand among them for comparison. Calls follow the shape of the dose curve; as a rule, active = well fitted inhibition curve with a large enough effect (not every such curve was filed as active); inconclusive = small, poorly fitted or top-dose-only effect, or another doubt; inactive = no such curve, though single readings can be large or run the other way. No potency is given beside an inconclusive call; the fits are too rough. Potency is read from the fitted curve at half-maximal effect; tags tell the direction and shape of the fitted curve.", "data": [{"target": "Aldehyde dehydrogenase 1A1 (Homo sapiens) (UniProt P00352)", "sequence (P00352 whole entry, looked up)": "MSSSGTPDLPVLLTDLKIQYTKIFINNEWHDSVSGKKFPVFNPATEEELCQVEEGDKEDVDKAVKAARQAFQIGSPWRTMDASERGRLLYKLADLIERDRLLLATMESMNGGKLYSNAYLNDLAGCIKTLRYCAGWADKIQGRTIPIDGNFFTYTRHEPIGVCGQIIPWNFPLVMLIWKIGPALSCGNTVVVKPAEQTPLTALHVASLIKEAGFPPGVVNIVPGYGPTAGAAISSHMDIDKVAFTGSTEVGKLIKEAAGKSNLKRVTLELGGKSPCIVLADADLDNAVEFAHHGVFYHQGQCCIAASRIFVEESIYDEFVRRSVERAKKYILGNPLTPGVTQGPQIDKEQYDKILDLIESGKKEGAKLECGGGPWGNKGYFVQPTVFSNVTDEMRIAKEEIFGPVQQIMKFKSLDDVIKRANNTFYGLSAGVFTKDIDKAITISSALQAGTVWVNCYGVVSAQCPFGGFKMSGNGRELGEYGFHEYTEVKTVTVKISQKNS", "assay": "qHTS Assay for Inhibitors of Aldehyde Dehydrogenase 1 (ALDH1A1);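 as to activity, negative = inhibition: plate controls were no enzyme wells and a reference inhibitor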", "details": "Purified ALDH1A1, NADH fluorescence, propionaldehyde substrate; series mostly up to 75.3 µM; activity, negative = inhibition: at the top concentration", "values": [{"smiles": "O=C(CSc1nnc(Cn2nnc(-c3ccccc3)n2)n1-c1ccccc1)Nc1ccc(F)cc1", "Potency": "inconclusive [inhibitor, full curve]"}, {"smiles": "CCN(CC)C(=O)CCS(=O)(=O)c1cccc2nonc12", "Potency": "inconclusive [inhibitor, single point]"}, {"smiles": "CN(CC/C=C1/c2ccccc2CSc2ccccc21)CCCO", "activity, negative = inhibition": "inactive: -4.19%"}, {"smiles": "Cn1c(C(=O)NCCCN2CCCC2=O)cc2c(=O)n(C)c3ccccc3c21", "Potency": "inconclusive [inhibitor, single point]"}, {"smiles": "COc1ccc(CNC(=O)COC(=O)C2CC3C=CC2C3)cc1", "note": "(stereo not drawn)", "Potency": "active: 11.2 µM"}, {"smiles": "Cc1nnc(SCc2c(Cl)cccc2[N+](=O)[O-])s1", "activity, negative = inhibition": "inactive: -2.61%"}, {"smiles": "CCCCSc1nnc([C@@H]2CCCN2C(=O)OC(C)(C)C)o1", "Potency": "inconclusive [inhibitor, single point]"}, {"smiles": "N#Cc1c2c(c(Nc3ccc(O)cc3)n3c1nc1ccccc13)CCC2", "activity, negative = inhibition": "inactive: 14.6%"}, {"smiles": "Cc1ccccc1NC(=O)CCC(=O)N/N=C/c1cc([N+](=O)[O-])ccc1O", "Potency": "inconclusive [inhibitor, single point]"}, {"smiles": "CCOc1ccc(CNc2ccc3c(c2)nc(C)n3C)cc1", "Potency": "inconclusive [inhibitor, single point]"}, {"smiles": "CN(C)c1ccc(/C=N/NC(=O)CNC(=O)c2ccc3c(c2)OCCO3)cc1", "Potency": "inconclusive [inhibitor, partial curve]"}, {"smiles": "Cc1ccc(-c2csc3ncnc(OCC(=O)NC(=O)NCc4ccco4)c23)cc1", "Potency": "inconclusive [inhibitor, partial curve]"}, {"smiles": "CCOC(=O)N1CCN(CC(=O)Nc2ccc(C)c(Br)c2)CC1", "Potency": "inconclusive [inhibitor, single point]"}, {"smiles": "CSCCNC(C)=O", "Potency": "inconclusive [inhibitor, full curve]"}, {"smiles": "FC(F)(F)c1ccccc1NC(=S)NN=C1CCCCCC1", "Potency": "active: 28.2 µM"}, {"smiles": "Cn1c(=O)c2c(nc(N3CCOCC3)n2CC(=O)c2ccccc2)n(C)c1=O", "activity, negative = inhibition": "inactive: -1.29%"}, {"smiles": "O=C(O)c1cccc2c1C(=O)c1ccccc1C2=O", "Potency": "inconclusive [inhibitor, partial curve]"}, {"smiles": "CCN1C(=O)NC2=C(C(=O)c3ccccc32)C1c1ccccc1F", "note": "(stereo not drawn)", "Potency": "active: 0.316 µM"}, {"smiles": "CC(C)(C)c1ccc(C(=O)NC(=S)Nc2sc3c(c2C#N)CCC3)cc1", "activity, negative = inhibition": "inactive: 3.94%"}, {"smiles": "O=C1CCCCCN1Sc1ccccc1", "activity, negative = inhibition": "inactive: -13.2%"}, {"smiles": "CC(=O)N1CCC2(CC1)CN(c1ccccn1)C2", "Potency": "inconclusive [inhibitor, partial curve]"}, {"smiles": "Nc1ccccc1C(=O)NCc1ccc(Cl)cc1", "Potency": "inconclusive [inhibitor, partial curve]"}, {"smiles": "CC1CCCN(C(=O)c2cccc(S(=O)(=O)Nc3cc(C(F)(F)F)ccc3Cl)c2)C1", "note": "(stereo not drawn)", "activity, negative = inhibition": "inactive: -9.41%"}, {"smiles": "C=CCn1c(O)c(N=NC(=S)Nc2ccccc2C)c2cc(S(=O)(=O)N3CCOCC3)ccc21", "Potency": "active: 10 µM"}, {"smiles": "O=C1c2oc3ccc(F)cc3c(=O)c2C(c2ccncc2)N1CCN1CCOCC1", "note": "(stereo not drawn)", "activity, negative = inhibition": "inactive: -9.83%"}, {"smiles": "CCC(CC)C(=O)Nc1ccc(Sc2ccc([N+](=O)[O-])cc2)cc1", "Potency": "active: 1.12 µM"}, {"smiles": "O=C(Cc1ccccc1)N/N=C/c1ccccc1F", "activity, negative = inhibition": "inactive: 2.64%"}, {"smiles": "Cc1ccc(NS(=O)(=O)c2cc(C(=O)O)ccc2Cl)cc1C", "activity, negative = inhibition": "inactive: 5.05%"}, {"smiles": "CCCCCCCCCCCCCCCC(=O)NC(C)C(=O)O", "note": "(stereo not drawn)", "activity, negative = inhibition": "inactive: -13.7%"}, {"smiles": "COCCCNC(=O)c1cccc(NC(=O)c2ccccc2)c1", "activity, negative = inhibition": "inactive: 13.9%"}, {"smiles": "CO/C([O-])=N/c1c[n+](-c2ccc(Cl)cc2)no1", "Potency": "inconclusive [inhibitor, single point]"}, {"smiles": "COc1ccc(NS(=O)(=O)c2cccc(C(=O)NNC(=O)c3cc(C)oc3C)c2)cc1", "activity, negative = inhibition": "inactive: -5.03%"}, {"smiles": "O=C(c1ccco1)N1CCN(Cc2nc(Cc3ccccc3)no2)CC1", "Potency": "active: 22.4 µM"}, {"smiles": "CC/C(O)=C(\\C#N)c1nnc2n1CCCCC2", "activity, negative = inhibition": "inactive: -12.1%"}, {"smiles": "O=C1C2C3C=CC(C3)C2C(=O)N1c1ccccc1", "note": "(stereo not drawn)", "activity, negative = inhibition": "inactive: -1.32%"}, {"smiles": "Cc1nc2c(Br)cc(Br)cc2cc1O", "activity, negative = inhibition": "inactive: -4.88%"}, {"smiles": "Cc1ccc(-c2csc(NC(=O)c3ccc(-c4ccccc4)cc3)n2)o1", "Potency": "active: 20 µM"}, {"smiles": "CCOc1ccccc1OCc1nn2c(COc3ccccc3)nnc2s1", "Potency": "active: 7.94 µM"}, {"smiles": "N/C(=N\\c1nc2c(c(=O)[nH]1)CCC2)Nc1ccccc1", "activity, negative = inhibition": "inactive: 7.62%"}, {"smiles": "c1ccc(OCCOCCN2CCOCC2)cc1", "activity, negative = inhibition": "inactive: 9.14%"}, {"smiles": "Cc1nn(CC2CC2)c(=O)n1N(C)c1ncc(C(F)(F)F)cc1Cl", "activity, negative = inhibition": "inactive: 11.8%"}, {"smiles": "CCOC(=O)Cc1csc(NC(=O)CSc2ncnc3c2cnn3-c2ccc(OC)cc2)n1", "Potency": "inconclusive [inhibitor, single point]"}, {"smiles": "O=C(CCN1C(=O)COc2ccccc21)NCCC1=CCCCC1", "Potency": "active: 31.6 µM"}, {"smiles": "O=C(Nc1ccc(Cl)c(Cl)c1)Oc1ccc(NC(=O)c2ccco2)cc1", "activity, negative = inhibition": "inactive: 2.57%"}, {"smiles": "Cc1cc(Cl)ccc1Nc1sc(C(=O)c2cc3cc(Cl)ccc3o2)c(N)c1C#N", "activity, negative = inhibition": "inactive: -1.14% [at 13.5 µM]"}, {"smiles": "Cc1cc(/C=C2\\SC(=S)NC2=O)cc(C)c1O", "Potency": "inconclusive [inhibitor, single point]"}, {"smiles": "Cc1c(O)c(CN2CCCC2)cc2c1oc(=O)c1ccccc12", "Potency": "inconclusive [inhibitor, single point]"}, {"smiles": "c1ccc(C2=Nn3c(nnc3-c3ccco3)SC2)cc1", "Potency": "inconclusive [inhibitor, single point]"}, {"smiles": "C/C(=N\\NC(=O)COc1ccccc1)c1ccc(O)cc1", "Potency": "inconclusive [inhibitor, single point]"}, {"smiles": "C/C(CC(=O)NC1C2CC3CC(C2)CC1C3)=N\\NC(=O)Cc1cccs1", "note": "(stereo not drawn)", "activity, negative = inhibition": "inactive: -4.59%"}, {"smiles": "Cn1c(-c2ccccc2)cnc1NCc1cc2c(cc1[N+](=O)[O-])OCO2", "Potency": "active: 12.6 µM"}, {"smiles": "CCN(C(=O)CSc1nc2cc(C(=O)OC)ccc2c(=O)n1Cc1ccco1)c1cccc(C)c1", "Potency": "inconclusive [inhibitor, partial curve]"}, {"smiles": "CCCCCC(CC(=O)O)C(=O)O", "note": "(stereo not drawn)", "activity, negative = inhibition": "inactive: -2.55%"}, {"smiles": "O=c1c2cn[nH]c2nc(SCc2cc(=O)n3cc(Br)ccc3n2)n1-c1ccc(Br)cc1", "activity, negative = inhibition": "inactive: -3.01%"}, {"smiles": "Cc1ccc(S(=O)(=O)NCCNC(=O)N2CCOCC2)cc1", "activity, negative = inhibition": "inactive: -0.644%"}, {"smiles": "CC1CCN(c2c(NCC3CCC(C(=O)Nc4ccccn4)CC3)c(=O)c2=O)CC1", "note": "(stereo not drawn)", "activity, negative = inhibition": "inactive: 6.53%"}, {"smiles": "Cc1cc(NC(=O)CSc2nc(-c3ccco3)cc(C(F)(F)F)n2)no1", "activity, negative = inhibition": "inactive: 1.58%"}, {"smiles": "Cc1ccc(C)c(NC(=O)Cn2nc(C)c3ccccc3c2=O)c1", "activity, negative = inhibition": "inactive: 16.6%"}, {"smiles": "CC(C)NC(=O)c1ccc2c(=O)n(Cc3ccco3)c(=S)[nH]c2c1", "Potency": "active: 8.91 µM"}, {"smiles": "O=C(CC(c1ccco1)C1CCCCC1=O)c1ccco1", "note": "(stereo not drawn)", "Potency": "active: 25.1 µM"}, {"smiles": "O=C(NCCc1ccccc1)c1ccccc1NS(=O)(=O)N1CCCC1", "Potency": "inconclusive [inhibitor, single point]"}, {"smiles": "COc1ccccc1CNC(=O)C[n+]1ccccc1", "activity, negative = inhibition": "inactive: -12.1%"}, {"smiles": "Cn1nnnc1SCC(=O)Nc1ccc(Br)cc1Cl", "Potency": "inconclusive [inhibitor, single point]"}, {"smiles": "CN(C)c1ncc2nc(-c3ccc(Cl)cc3)c(=O)n(-c3ccccc3)c2n1", "Potency": "inconclusive [inhibitor, partial curve]"}, {"smiles": "O=c1c2ccccc2oc2ccccc12", "Potency": "inconclusive [inhibitor, partial curve]"}, {"smiles": "CCc1ccc(C2C3=C(CC(C)(C)CC3=O)Nc3c2c(=O)[nH]c2nc(C)nn32)cc1", "note": "(stereo not drawn)", "Potency": "inconclusive [inhibitor, single point]"}, {"smiles": "CN1C(=O)SC(Nc2ccccc2)C1=O", "note": "(stereo not drawn)", "Potency": "active: 31.6 µM"}, {"smiles": "CN(CC(=O)Nc1ccc(N2CCOCC2)cc1)Cc1cc(=O)n2ccsc2n1", "Potency": "inconclusive [inhibitor, partial curve]"}, {"smiles": "O=C(NCc1ccco1)c1nn(-c2ccccc2)c(=O)c2ccccc12", "Potency": "inconclusive [inhibitor, partial curve]"}, {"smiles": "NC(=O)c1c(NC(=O)Cc2cccs2)sc2c1CCC2", "Potency": "inconclusive [inhibitor, single point]"}, {"smiles": "CC(Oc1ccc(F)cc1)C(=O)Nc1ccc2ccccc2c1", "note": "(stereo not drawn)", "activity, negative = inhibition": "inactive: -3.05%"}, {"smiles": "O=C(C[n+]1ccc(C(=O)c2ccccc2)cc1)Nc1ccc(C(F)(F)F)cc1", "activity, negative = inhibition": "inactive: 2.38%"}, {"smiles": "CCOC(=O)Nc1ccc(C)cc1C", "activity, negative = inhibition": "inactive: 12.8%"}, {"smiles": "CCCc1cc(N2CCN(C(=O)c3ccco3)CC2)n2c(nc3ccccc32)c1C#N", "Potency": "inconclusive [inhibitor, partial curve]"}, {"smiles": "Cn1cc(CNCc2cn[nH]c2-c2ccc(F)cc2)c(-c2ccc3c(c2)OCCO3)n1", "Potency": "inconclusive [inhibitor, single point]"}, {"smiles": "S=c1[nH]nc(-c2ccco2)n1/N=C/c1ccc(Cl)cc1Cl", "Potency": "inconclusive [inhibitor, single point]"}, {"smiles": "Cc1ccnc(NC(=O)c2cc(S(=O)(=O)N3CCCCC3)ccc2Cl)c1", "Potency": "inconclusive [inhibitor, single point]"}, {"smiles": "COc1cnc(SCCC(F)=C(F)F)[nH]c1=O", "activity, negative = inhibition": "inactive: 1.82%"}, {"smiles": "COc1ccc(CN2CCC(CO)(CCOc3ccccc3)CC2)c(OC)c1C", "activity, negative = inhibition": "inactive: 6.7%"}, {"smiles": "COc1ccc(-c2nc3cnc(OCc4ccccc4)nc3n(CCC#N)c2=O)cc1", "Potency": "inconclusive [inhibitor, partial curve]"}, {"smiles": "COc1ccc(/C=C/C(=O)c2cc(Br)ccc(=O)c2O)cc1", "Potency": "inconclusive [inhibitor, single point]"}, {"smiles": "N/C(=N\\OC(=O)Cc1cccs1)c1ccc(Br)cc1", "activity, negative = inhibition": "inactive: -2.79%"}, {"smiles": "Cc1noc(C)c1C(=O)N1CCC2(CC1)CCN(c1ccncc1)CC2", "Potency": "inconclusive [inhibitor, partial curve]"}]}]}
